Biological target: PI3Kα H1047R (Homo sapiens (Human), UniProt P42336, H1047R)
Experiment: biochemical
Conditions: PI3KαH1047RIC50, ADP-Glo; ATP 25 μM; PIP2 50 μg/mL; 1 hour at room temperature

SMILES | IC50 [nM]
CC(C)(O)c1cc(NC(=O)c2cc(F)cc(C(F)(F)F)c2)c2c3c1CCN3C(=O)NC2c1cc(F)ccc1Cl (stereo not shown) [YL089] | 250 to 10000
Nc1cc(-c2nc3cc(Cl)ccc3[nH]2)c2c3c1CCN3C(=O)NC2c1cc(F)ccc1Cl (stereo not shown) [YL099] | 250 to 10000
Nc1cc(-c2nc3cc(Cl)c(Cl)cc3[nH]2)c2c3c1CCN3C(=O)NC2c1cc(F)ccc1Cl (stereo not shown) [YL100] | 250 to 10000

More lines, now with the values ahead:

IC50 [nM] | SMILES
250 to 10000 | Cn1nc2c(-c3cc(C(F)(F)F)n[nH]3)cc(NC(=O)c3cc(F)cc(C(F)(F)F)c3)c3c2c1C(=O)NC3c1cc(F)ccc1Cl (stereo not shown) [YL105]
250 to 10000 | Cn1nc2c(-c3cn[nH]c3C(F)F)cc(NC(=O)c3cc(F)cc(C(F)(F)F)c3)c3c2c1C(=O)NC3c1cc(F)ccc1Cl (stereo not shown) [YL112]
250 to 10000 | Cn1nc2c(-c3c[nH]nc3F)cc(NC(=O)c3cc(F)cc(C(F)(F)F)c3)c3c2c1C(=O)NC3c1cc(F)ccc1Cl (stereo not shown) [YL113]
< 250 | N#Cc1c(-c2cc(NC(=O)c3cc(F)cc(C(F)(F)F)c3)c3c4c2CCN4C(=O)NC3c2cc(F)ccc2Cl)cc(F)c2ncnn12 (stereo not shown) [YL149]

Reference: patent US20240158408A1, “Nitrogen-Containing Heterocyclic Compound, Pharmaceutical Compositions thereof and Use thereof” (280 Bio, Inc., priority 2022, published 2024)
